# Reference: PMC6212790
# The list shows a part of the results. At the low end of the ranking, values are background and their order means little.
# Biological target: T1, GST-Rok-C97-191 (UniProt O34857)
# T1 sequence: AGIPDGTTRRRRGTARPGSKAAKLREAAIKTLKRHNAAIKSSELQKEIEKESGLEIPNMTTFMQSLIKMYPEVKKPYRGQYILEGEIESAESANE
# Experiment: protein binding microarray;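 note: rank score from −0.5 (least bound) to 0.5 (best bound)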
# Conditions: Rok is a gene silencer of Bacillus subtilis; high values mean tight binding; most listed sequences are background and not binding sites; double strand, one strand shown
row,Sequence,binding signal
1,GCCTTAAA,-0.0724 E-score
2,AAGTCTGT,-0.0588 E-score
3,CAATGCAC,-0.0287 E-score
4,AACGATAG,0.199 E-score
5,AGAGATAG,0.188 E-score
6,AGGTGAAG,-0.109 E-score
7,TCAATTCA,0.0501 E-score
8,AGGAGAGG,-0.272 E-score
9,TGTGATAA,0.0773 E-score
10,CCGGCCAG,-0.249 E-score
11,GAGCGATA,0.0452 E-score
12,TCTTTCAA,-0.0733 E-score
13,ACACATCG,-0.04 E-score
14,AGGGGTAT,-0.0357 E-score
15,CACGCTTA,-0.0235 E-score
16,CGCCGGTC,-0.256 E-score
17,CTTCCTCA,-0.0806 E-score
18,AACGGGCG,0.000722 E-score
19,AAGATTAA,0.0955 E-score
20,CCATCGGC,-0.0744 E-score
21,CAAGCAAC,-0.113 E-score
22,CGCGCACC,-0.106 E-score
23,GCCCTCCC,-0.412 E-score
24,AGGCCCTC,-0.337 E-score
25,GAGATAAC,0.247 E-score

row,Sequence,binding signal
1,CGTGCCCC,-0.27 E-score
2,AAGATATA,0.347 E-score
3,TAGCTATA,0.292 E-score
4,AGCCATCG,-0.206 E-score
5,TCTTGTAA,0.182 E-score
6,GTGTACGA,-0.00664 E-score
7,TCGCGACA,-0.135 E-score
8,CCGACCCC,-0.443 E-score
9,CAGATTCG,0.0867 E-score
10,CGGCAGTC,-0.22 E-score
11,AAGCCCTA,-0.172 E-score
12,AACCTGTA,0.0423 E-score
13,GCCTGGAA,-0.0762 E-score
14,AACGCACA,-0.111 E-score
15,CTATTTGC,0.142 E-score
16,AGAAGACC,-0.0237 E-score
17,TATATGAA,0.265 E-score
18,AGTATAAG,0.259 E-score
19,AAGCCTGC,-0.209 E-score
20,AATTACTC,0.255 E-score
21,CCGTCACG,-0.096 E-score
22,CTGCTTGC,-0.0519 E-score
23,ATCGTCTA,0.137 E-score
24,CGCGGGAC,-0.366 E-score
25,AGTGCGGG,-0.171 E-score

row,Sequence,binding signal
1,GCCCACGC,-0.179 E-score
2,GTTCGTAA,0.0791 E-score
3,CCGAGCCA,-0.127 E-score
4,TGTCTTAA,-0.0778 E-score
5,ACTTGAGG,-0.0185 E-score
6,ACCTTCGG,-0.173 E-score
7,AGCTCGGA,-0.175 E-score
8,TAGATGCA,0.155 E-score
9,ACGGACCC,-0.186 E-score
10,TGTAGCAA,0.194 E-score
11,AGGGTGTA,-0.023 E-score
12,AGGTTTTA,0.0365 E-score
13,AACCGTGC,-0.0781 E-score
14,AGCCGGTA,-0.113 E-score
15,GACTGGAC,-0.246 E-score
16,CATAATCA,0.112 E-score
17,CCAGGCGA,-0.0465 E-score
18,AGTTAACG,0.209 E-score
19,GCATGTAC,0.163 E-score
20,ATTTCGCG,0.158 E-score
21,ACGACCCT,-0.0589 E-score
22,TCATACCA,0.0725 E-score
23,AAGCATTC,-0.00996 E-score
24,CAGTGTGA,-0.0766 E-score
25,CTCATCGA,0.0576 E-score

row,Sequence,binding signal
1,TAATGAAA,0.107 E-score
2,AAGAATGG,-0.0198 E-score
3,CTTTGATA,0.144 E-score
4,GGCCGCAC,-0.397 E-score
5,TACATGTA,0.417 E-score
6,CGATTGAG,-0.142 E-score
7,AGAGGTCG,-0.0568 E-score
8,CAACGGGA,-0.0348 E-score
9,AGGGTGTG,-0.0958 E-score
10,GTCTTTAA,-0.0159 E-score
11,CTCCGAGA,0.0341 E-score
12,AATGTGTG,0.011 E-score
13,CCGCGTTA,-0.185 E-score
14,ATTCCGTA,0.296 E-score
15,ATCTATCC,0.115 E-score
16,CTTGAGCA,0.017 E-score
17,AAATTACC,0.365 E-score
18,TGGCTCAA,-0.0195 E-score
19,GACGCAGC,-0.311 E-score
20,TTCATGAA,-0.061 E-score
21,ATACTTAG,0.213 E-score
22,CCCCATCA,-0.108 E-score
23,AAACCTGT,-0.109 E-score
24,AGTCCTCG,-0.119 E-score
25,ACTTCCCC,0.0327 E-score

row,Sequence,binding signal
1,CCGCCTAA,-0.335 E-score
2,CCTAAAGA,0.135 E-score
3,ACAAACAG,0.143 E-score
4,CGTCGTTC,-0.243 E-score
5,AATACGAG,0.0609 E-score
6,AGTATGCC,0.0155 E-score
7,GGGCCTGA,-0.29 E-score
8,GTAGCTTA,0.211 E-score
9,GGAATTCC,0.0128 E-score
10,CCTGCGCC,-0.169 E-score
11,CTTCGTCA,-0.15 E-score
12,GCCTACAA,0.182 E-score
13,TCAGGGGA,-0.111 E-score
14,GCGATAAC,0.137 E-score
15,ACGTCTAG,0.199 E-score
16,ATAAATTG,0.264 E-score
17,ACGTCACT,0.0919 E-score
18,AGTAGTAC,0.356 E-score
19,GGGATAAC,0.0538 E-score
20,AAATATAG,0.22 E-score
21,CCTTAAAA,-0.0245 E-score
22,GACGTGCA,-0.0735 E-score
23,GGTGAGGA,-0.218 E-score
24,ATACGTGA,0.147 E-score
25,ATGGTTCA,-0.0658 E-score

row,Sequence,binding signal
1,CATTGCGG,-0.224 E-score
2,CGGATGCA,-0.121 E-score
3,CGTACCTA,0.178 E-score
4,CCGTACCA,-0.142 E-score
5,AGACACGA,-0.238 E-score
6,GGCGATGA,-0.154 E-score
7,CTATGTCA,0.0815 E-score
8,TAGGGGGA,-0.143 E-score
9,AAAAAGAC,-0.0782 E-score
10,CCTCCGTA,-0.245 E-score
11,TCAGACCA,-0.165 E-score
12,AATGTGAG,0.0644 E-score
13,GACAGCTC,-0.355 E-score
14,CTCTAGCA,-0.00502 E-score
15,ATAGAGAC,0.171 E-score
16,AACCAGAA,-0.152 E-score
17,AGACATTA,0.0762 E-score
18,AGGAGCTA,0.0936 E-score
19,CGATCACG,-0.198 E-score
20,ATACCCTG,-0.0272 E-score
21,ACTTATTA,0.283 E-score
22,GCATGGCA,-0.154 E-score
23,TCGGGGCA,-0.0327 E-score
24,CGAATGCC,-0.214 E-score
25,TAATCCAA,-0.00906 E-score

row,Sequence,binding signal
1,ACATACGC,-0.0272 E-score
2,GCCATTAA,0.0393 E-score
3,CCTTGCAA,-0.173 E-score
4,CGCTATGA,-0.117 E-score
5,AGGAGCGA,-0.17 E-score
6,ACTCGCGG,-0.0967 E-score
7,GCGTCGTA,-0.00913 E-score
8,GTTACAAA,0.0329 E-score
9,AAGGATGC,-0.0681 E-score
10,GTATATCA,0.216 E-score
11,GTTGTTAA,0.19 E-score
12,GAACCAGC,-0.0106 E-score
13,ACACGGTA,0.0693 E-score
14,CCCCACGC,-0.111 E-score
15,ACGTTTTA,0.0816 E-score
16,GCACCACC,-0.138 E-score
17,TTAACTAA,0.235 E-score
18,GCATCTAA,0.144 E-score
19,CATTCAGG,-0.226 E-score
20,CCCCGCGC,-0.309 E-score
21,TAAAATCA,0.203 E-score
22,AAATACCA,0.286 E-score
